# Experimental data reported in ChEMBL document CHEMBL4888484, “Replenishing the malaria drug discovery pipeline: Screening and hit evaluation of the MMV Hit Generation Library 1 (HGL1) against asexual blood stage Plasmodium falciparum ,using a nano luciferase reporter read-out” (2022).
# The whole screen tested about 150,000 compounds, of which about 540 (0.36%) showed an effect of 50% or more. The list shows a part of the results.
# Tested on: Plasmodium falciparum
# Assay: Primary screen in NF54 nanoGlo assay, in single point, at 2uM, 72h; a lower Z score goes with more inhibition
# Format: functional, Erythrocyte
# Conditions: timepoint 72 hour
SMILES,% Inhibition [%],Z score
CCCn1c(=O)cc(-c2ccccc2)c2ccc(OCC(=O)Nc3ccccc3F)cc21,10,-1.49
[O-][n+]1ccc(OCc2ccccc2)cc1,-14,1.59
CCCNC(=O)CNC(=O)NCCC1CCCC1,3,-0.34
Cc1cc(C(=O)NCc2cc(-c3ccncc3)n(C3CCCC3)n2)no1,-13,1.51
Cc1cccc(S(=O)(=O)CCCN2CCC(c3ncco3)CC2)c1,-19,2.57
Cc1nc2c(c(-c3ccc(C(N)=O)c(Cl)c3)n1)CCC2,-16,2.23
CCc1cnc(NCc2cc3c(nc2OC)CN(C2CCCC2)C3=O)nc1,2,-0.23
COc1ccc(OC)c(CNS(=O)(=O)c2ccccc2-c2nc(-c3ccc(C)cc3)no2)c1,-8,1.01
COC(=O)c1c(NC(=O)[C@@H]2CCCO2)c2cc(NC3CCN(C(C)=O)CC3)cnc2n1CCc1ccccc1,-2,0.3
COCCCCNc1cc(F)c(F)cc1F,-1,0.2
CCN(CC(F)(F)F)C(=O)NCCc1cn[nH]c1,-4,0.76
COc1cccc(-c2ccc3nc(N4CCC(C(=O)O)CC4)sc3n2)c1,2,-0.15
CCC1CC(C(=O)Nc2ncc(Cl)s2)CCO1 (stereo not given),-2,0.21
COCCN(Cc1c(-c2ccccc2)nn(C)c1Oc1ccc(Cl)cc1)C(=O)c1ccc(F)cc1,-17,1.52
Cc1cc(C)nc(CCNC(=O)C[C@H]2C(=O)NCCN2C/C=C/c2ccccc2)n1,-12,1.74
O=C(CCCNS(=O)(=O)c1ccc(Cl)cc1)NCc1ccccc1,0,-0.02
CCC1(CNC(=O)NCCCNC(C)=O)CCCC1,-9,0.74
COc1ccccc1CCC(=O)N1CC[C@@]2(CCCN(CC3CC3)C2=O)C1,-7,1.29
Cc1ccc2c(c1)[C@@H](NCc1ccc(C3OCCO3)cc1)CC2,-24,2.19
Cc1cc(C)nc(-n2[nH]c(C)c(Cc3ccc(C(C)(C)C)cc3)c2=O)n1,1,-0.16
CCOc1ncccc1C(=O)Nc1ccc(S(=O)(=O)N2CCOCC2)cc1,-13,2.04
O=C(N[C@H]1CC[C@@H](C(=O)Nc2cc(F)ccc2F)C1)c1ccco1,-6,1.25

SMILES,% Inhibition [%],Z score
CC(=O)[C@@H]1CCCCN1C(=O)OC(C)(C)C,-19,1.73
O=C(Nc1cccc(C(F)(F)F)c1)N1CCC(Oc2cnc3ccccc3n2)CC1,-19,3.54
Cc1ccc(CN2CCC3(CC2)C(=O)NCCN3C)n1-c1cccnc1,0,-0.01
O=S(=O)(Nc1nnc(C2(c3ccccc3)CC2)s1)c1cccs1,-6,0.83
CCN1CCN(C(C)(C)CNC(=O)N[C@@H](C)[C@H](O)c2ccccc2)CC1,-21,2.22
Cc1ccnc(N2CCC[C@H](n3cc(C(=O)NCCO)nn3)C2)n1,-5,0.82
Cc1cc(C)n([C@@H](C)CC(=O)Nc2cc(C)on2)n1,-16,1.59
O=C(COC[C@H]1CCCO1)N1CCCc2cc(F)c(F)c(F)c21,-5,0.85
Cc1ccc(OCCNS(=O)(=O)N2CCC[C@H](C)C2)cc1,23,-2.7
CCOc1ccccc1NC(=O)[C@H]1CCC(=O)NC1,3,-0.37
O=C(NCC1CC1)[C@H](C1CCCC1)N1CCN(C(=O)CCc2ccccc2)CC1,-3,0.36
COc1cccc(C2NC(C)(C(=O)O)C3C(=O)N(Cc4ccccc4)C(=O)C23)c1O (stereo not given),-15,1.98
CCOc1ccc(-n2ccn3c(C[C@@H](C)CC(=O)NCc4ccc(F)cc4)nnc3c2=O)cc1,-10,1.52
Cc1cccc(C(=O)N2CCC[C@H]2c2ccc3c(c2)OCCCO3)n1,-7,1.3
Cc1cc(C)n(CC(=O)Nc2nnc(C3CC3)s2)n1,-15,3.03
CN(C)c1cc(O[C@H]2CCN(C(=O)c3cnn4cccnc34)C2)ncn1,-3,0.37
Cc1cc(-n2nnc(C(=O)Nc3cc(F)cc(F)c3)c2-c2cccnc2)ccc1F,3,-0.23
O=C1NC2(CCN(Cc3ccccn3)CC2)Nc2ncccc21,-9,1.07
O=C(c1ccc[n+]([O-])c1)N1CCOc2ccc(C3=CCCCC3)cc2C1,-3,0.44
COc1ncc([C@@H]2C[C@H](NC(C)=O)C[C@H](CCc3ccccc3)O2)cn1,3,-0.55
COc1ccc(NC(N)=NCc2ccco2)cc1,-12,0.98
Cc1nc(-c2ccccc2)sc1-c1cc(C(=O)O)n[nH]1,31,-3.99

SMILES,% Inhibition [%],Z score
CC(C)[C@H]1CC[C@H](C(=O)NC2(CO)CCOCC2)CC1,-13,1.68
Cc1ccc(CNC(=O)N2CCc3c(c(-c4nc(C5CC5)no4)nn3C)C2)cc1,-8,1.31
Cc1ccsc1[C@@H](O)CNC(=O)c1cccs1,-12,2.04
CCOc1cncc(N2CCOC3CCCCC32)n1 (stereo not given),2,-0.22
O=C(Cc1n[nH]c(-c2cccnc2)n1)NCCc1cccs1,-4,0.52
CCOc1cc(C=C(C)c2cnccn2)ccc1O,-4,0.44
O=C(Cc1ccc(O)cc1)N1C[C@H]2CCCC[C@@]2(C(=O)O)C1,18,-2.31
O=S(=O)(Cc1ccc(C(F)F)cc1)N1CCC[C@@H]1c1nc[nH]n1,-2,0.4
CC1(NC(=O)c2cncnc2)CCOC1C1CC1 (stereo not given),-9,1.17
CCn1ncnc1CN1C[C@@H]2NC(=O)c3ccc(Cl)c(c3)OCCCn3cc(nn3)CO[C@H]2C1,-13,2.49
COCCOCC1CCN(C(=O)Nc2ccc3c(c2)OCO3)CC1,-18,2.63
CCO[C@@H](C)c1nccn1Cc1ccnc(N(C)C)c1,-4,0.41
COCC(=O)N1CCc2cc(NC(=O)c3c(-c4ccccn4)noc3C)ccc21,-12,1.83
CO[C@@]12CC[C@@H](O)C[C@@H]1N(C(=O)c1cccc3[nH]c(C)nc13)CC2,6,-1.06
COc1cc([C@H]2CC(=O)Nc3[nH]nc(C)c32)ccc1OCc1ccccc1,5,-0.93
CCN(CC(F)(F)F)C(=O)Nc1cccc(C(N)=O)c1C,-25,3.15
CCCN1CCN(C(=O)c2ccc3c(c2)nc2n3CCN(Cc3ccccc3)C2=O)CC1,-10,1.3
O=C(c1ncncc1Cl)N1CCCC2CCCC21 (stereo not given),33,-3.7
C[C@H]1c2ccsc2CCN1C(=O)c1ccc(Cl)c(N2CCCC2=O)c1,-4,0.51
Cc1ccc(S(=O)(=O)NC2CC2)cc1C(=O)N1CCC(C(=O)N2CCC[C@H](C)C2)CC1,2,-0.29
O=C1CC[C@H](C(=O)Nc2cccc(F)c2)C1,2,-0.23
Cc1ocnc1C(=O)Nc1ccc(F)cn1,-5,1.08

SMILES,% Inhibition [%],Z score
CN(C)[C@H]1[C@@H]2CC[C@H]1CN(C(=O)c1cc(C(F)(F)F)ccc1Cl)C2,-4,0.78
CCN(CC)c1ccc(CN(CCOC)C(C)=O)c(OS(=O)(=O)c2ccc(OC)cc2)c1,-9,1.11
O=S(=O)(c1cccnc1N1CC[C@@]2(CCCOC2)C1)N1CCCCC1,0,0.01
CCC(C)C(C)(O)CNc1ncccc1C(=O)O (stereo not given),-2,0.25
CC1CN(C(=O)Cn2ccnc2C(O)c2ccc(F)cc2)CC(C)O1 (stereo not given),-4,0.73
CCCC1(CNC(=O)CCc2cn[nH]c2)CCC1,-7,1.31
CCN(CC)C(=O)C[C@@H](C(F)F)N1CCOCC1,-7,1.07
CC(C)(C)N(CC(=O)N1CCn2cccc2[C@H]1c1ccccc1Cl)C(=O)c1ccccc1Cl,0,-0.03
CCOC[C@H]1CCCN1C(=O)Cc1c(C)[nH]c(=O)[nH]c1=O,7,-0.94
CC(C)CC(=O)Nc1ccc(Cl)cn1,2,-0.4
O=C(c1cccnc1-c1ccncc1)N1CCCC1,-18,1.95
Cc1nc(-c2cccs2)sc1C(=O)N1CCOC2CCCC21 (stereo not given),0,0.05
O=C(Nc1nccs1)N1CCN2C(=O)NC[C@H]2C1,-12,1.2
C[C@](O)(CNc1nc(C2CC2)nc2c1CCC2)CN1CCOCC1,-16,1.41
Clc1cccc(Cl)c1COc1ccncc1,-8,0.98
Nc1nnc(CC(=O)N2CCO[C@H]3CCCC[C@@H]32)s1,-1,0.23
COc1nc(-c2cccc(C(=O)NCCCn3ccnn3)c2)nn1C,-1,0.16
O=C(NCc1cc2ccc(F)cc2[nH]c1=O)c1cnn[nH]1,-2,0.3
CC[C@@H](C(=O)Nc1cc(C)on1)N1CCC(O)CC1,0,-0.06
